Source: PubChem BioAssay AID493208 (National Center for Advancing Translational Sciences (NCATS), 2011)
The whole screen tested about 44,000 compounds, of which about 340 (0.77%) were called active. Another 5% or so got no clear call; they are omitted. Calls come from the whole dose curve; as a rule, active = well fitted inhibition curve with a large enough effect; inconclusive = small, poorly fitted or top-dose-only effect; inactive = flat fitted curve, though single readings scatter. This is one part of the list.

assay: Acumen qHTS Assay for Inhibitors of the mTORC1 Signaling Pathway in MEF (Tsc2-/-, p53-/-) Cells: Sytravon; settings: phospho-rpS6 immunofluorescence/PI, 24 h; series mostly up to 38.3 µM; activity change, negative = inhibition: at the top concentration;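 note: plate controls were DMSO for no effect and rapamycin for full effect; nearly all actives have a fitted effect of over 50% in size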
Summary of the method: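 Cell-based qHTS: Tsc2-/- p53-/- MEF, 24 h cpd, 37 °C; fix/perm, anti-phospho-S6 Alexa-488 + PI; Acumen 488 nm scan; pS6/PI ratio, % positive cells; rapamycin 7.5 nM = inhibition ref; PI count = viability.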

Activity change, negative = inhibition, inactive:
CCCC(=O)Nc1cccc(-c2cn3cccnc3n2)c1 0.703%, Cc1ccc(CNc2ncnc3c2c(-c2ccccc2)cn3-c2ccccc2)cc1 -0.786%, CCOC(=O)c1ccc(NS(=O)(=O)c2ccc3c(c2)OCCO3)cc1 -13.8%, COc1ccc(OC)c(CCNC(=O)Cn2ccc3cc(S(=O)(=O)N4CCCCC4)ccc32)c1 -4.51%, COc1ccc(OC)c(-c2noc(N3CCN(c4cc(C)ccc4C)CC3)n2)c1 -8.07%, CCN(CC)c1ccc(NC(=O)c2sc3ccccc3c2Cl)cc1 -2.82%, CCCn1c(=N)c(C(=O)NCc2cccnc2)cc2c(=O)n3ccccc3nc21 -6.75%, Cc1ccc(C)c(CNC(=O)c2ccc3c(c2)nc2n3CCC(C)C2)c1 (stereo not given) -15.8%, Cc1ccc(N(C)S(=O)(=O)c2nnc(NC(=O)CC(C)C)s2)cc1 7.99%, COc1ccccc1-c1cc2nc(C)c(CCC(=O)NCCc3ccc(SC)cc3)c(C)n2n1 1.85%, CCOC(=O)c1cc(OC(=O)c2ccc(OC)cc2)n(-c2ccccc2)n1 -1.35%, COc1ccc(NC(=O)C(Cc2ccccc2)NS(=O)(=O)c2ccc3c(c2)CCN3C(C)=O)cc1 (stereo not given) -13.5%, CCOC(=O)Cc1ccc(NC(=O)Nc2cc3c(cc2N2CCCCC2)n(C)c(=O)n3C)cc1 -2.67%, Cc1ccc(NC(=O)Cn2c(=O)ccc3cc(S(=O)(=O)N4CCC(C)CC4)ccc32)c(C)c1 -5.46%, CCOC(=O)c1cc2c(=O)n3ccccc3nc2n(C)c1=NC(=O)c1c(-c2ccccc2Cl)noc1C -5.13%, O=C(Nc1ccc(F)cc1F)c1ccc2c(c1)CCN2S(=O)(=O)c1ccc(Cl)cc1 -8.33%, COc1ccc(-n2cc(C(=O)Nc3cc(F)ccc3F)c3ccccc3c2=O)cc1 6.63%, CCOc1ccc(CNC(=O)Cn2ccc3cc(S(=O)(=O)N4CCCCCC4)ccc32)cc1 -6.27%, CCCCOC(=O)c1ccc(NC(=O)CC2NCCNC2=O)cc1 (stereo not given) -1.65%, COCCCNC(=O)C1CCC(CNS(=O)(=O)c2ccc(OC)cc2)CC1 (stereo not given) -5.34%, COc1cccc(CNC(=O)C2CCN(Cc3cc4ccccc4n3Cc3ccc(C)cc3)CC2)c1 -9.67%, COc1ccc2oc(=O)c(C(=O)Nc3cccc(C(=O)O)c3)cc2c1 0.667%, COc1cc(-c2cc3n(C)c(C)c(CCC(=O)NCc4ccccc4)c(=O)n3n2)cc(OC)c1OC 5.93%, Cc1ccc(CNC(=O)CCCN2C(=O)CCn3nc(-c4cn(C)c5ccccc45)cc32)cc1 -20.7%, Cc1ccc(Cn2c(CCCNC(=O)c3ccco3)nc3ccccc32)cc1 -8.86%, Cc1nc2c(-c3ccccc3)c(C)nn2c(C)c1CCC(=O)NCc1ccc(Cl)cc1 -7.75%, COc1ccc(CCNS(=O)(=O)c2ccc(N3CCCCS3(=O)=O)cc2)cc1OC 0%, CCOC(=O)c1nnn(CC(=O)Nc2cc(C)cc(C)c2)c1C(=O)OCC 2.88%, COc1ccccc1CNC(=O)c1cc2cccc3c2n1CC(C)S3 (stereo not given) 0%, CS(=O)(=O)N(CC(=O)NCCSCc1ccccc1)c1cc(C(F)(F)F)ccc1Cl -9.99%, O=C(Cn1cnc2onc(-c3ccc(F)cc3)c2c1=O)Nc1cccc(C(F)(F)F)c1 -2.05%, COc1ccc(NC(=O)CC2C(=O)N(c3ccccc3)C(=O)N2C2CCCCC2)cc1 (stereo not given) -1.09%, CCOC(=O)c1ccc(NC(=O)c2nc(SC(C)C)ncc2Cl)cc1 2.23%, Cc1ccc(C)c(Cn2cnc3c(cnn3-c3ccc(F)cc3)c2=O)c1 2.62%, CCN(Cc1ccccc1)S(=O)(=O)c1ccc2c(c1)CCCN2C(C)=O -15.1%, CCc1ccc(NC(=O)N2c3ccccc3Sc3ccccc32)cc1 2.3%, Cc1cc(-c2ccccc2)n2nc(-c3cccc(Br)c3)cc2n1 -7.32%, Cn1nc(C(=O)NCc2ccc(F)cc2)c2c1-c1ccccc1SC2 -7.41%, Cc1ccc(-c2c(C(=O)NCc3ccc(F)cc3)oc(=O)c3ccccc23)cc1 -0.341%, CC(C)CN(CCNC(=O)c1cn(C)c2ccc(S(=O)(=O)N3CCOCC3)cc2c1=O)CC(C)C -1.23%, CC(=O)c1cccc(NC(=O)c2oc(=O)c3ccccc3c2-c2ccccc2)c1 -2.82%, Cc1ccccc1NC(=O)Cn1c(=O)n(Cc2ccc3c(c2)OCO3)c(=O)c2ccc(C(=O)NC3CCCCC3)cc21 4.28%, Cc1ccc2cccc(NC(=O)c3ccc(-c4cccc(Cl)c4Cl)o3)c2n1 8.9%, CSCCC(NS(=O)(=O)c1ccc2c(c1)oc(=O)n2C)C(=O)NCc1ccccc1 (stereo not given) 1.16%, COc1ccc(CCCc2nnc(SCC(=O)Nc3ccc(F)cc3)o2)cc1C -15.4%, O=C(NCc1ccc(F)cc1)C1CCCCN1S(=O)(=O)c1ccc(F)cc1 (stereo not given) -2.61%, CCC(=O)N1CCc2cc(S(=O)(=O)CCC(=O)N3CCN(c4cccc(Cl)c4)CC3)ccc21 0.0442%, Cc1cc(C)cc(NC(=O)c2oc3ccc4c(c3c2C)C(=O)CC(C)(C)O4)c1 -0.0942%, COc1ccc2c(c1)c1c(c(=O)n(Cc3ccccc3)c(=O)n1CC(=O)NCc1ccc(C)cc1)n2C -4.51%, COc1ccc(N2CCN(C(=O)CCC(=O)NNc3nc4ccccc4c4nc(C)nn34)CC2)cc1 0.733%, Cc1ccc(OCc2nnc(SCC(=O)Nc3ccccc3C(C)C)o2)cc1 -0.0164%, CCOC(=O)c1cc(C)n(CC2CCC(C(=O)Nc3ccc(C)cc3)CC2)c1C (stereo not given) -8.78%, CCc1ccc(NC(=O)c2ccc3nc(C(C)C)oc3c2)cc1 1.91%, COc1cc(OC)c(NC(=O)Cn2c(=O)cc(C)c3c(C)nn(-c4ccc(C)cc4)c32)cc1Cl -0.571%, CCOC(=O)N1CCC2(CC1)OC(=O)C(C)=C2C(=O)NCc1ccc(C)cc1 -4.99%, CCNC(=O)c1ccc(CSc2nc3cccnc3n2Cc2ccc(OC)cc2)cc1 2.76%, COC(=O)Cn1ccc2cc(S(=O)(=O)N3CCCCCC3)ccc21 -8.69%, CCN(C(=O)CN1C(=O)COc2ccc(S(=O)(=O)N3CCOCC3)cc21)c1cccc(C)c1 -3.92%, CCCc1cnc2c(c1SCC(=O)Nc1c(C)cc(C)cc1C)c(=O)n(C)c(=O)n2C -0.273%, CCc1nn(-c2ccccc2)c2nc(-c3ccc(O)cc3)c3cc(OC)c(OC)cc3c12 -0.227%, COC(=O)c1ccc(NC(=O)Cn2c(-c3nonc3N)nc3ccccc32)cc1 1.82%, Cc1cccc(-c2nc(CN3CCCC(C(=O)NCc4ccc(Cl)cc4)C3)c(C)o2)c1 (stereo not given) -2.86%, Cc1nn(CC(=O)N2CCC(C)CC2)c(=O)c2cc3occc3n12 1.61%, COc1cccc(NC(=O)N(Cc2c[nH]c3ccccc23)C2CCCCCC2)c1 -11.9%, CN(C(=O)c1cc2c(Cl)nc3ccccc3c2s1)c1cccc(C(F)(F)F)c1 2.08%, CCn1c(C(=O)Nc2c(C)cccc2C)cc2sc(Cl)cc21 -3.65%, O=C(Cn1nc(-c2ccccc2)c2c(c1=O)CCCC2)Nc1ccc(F)c(Cl)c1 -5.21%, Cc1ccccc1NS(=O)(=O)c1ccc2[nH]cc(C(=O)NC3CCCCC3)c(=O)c2c1 -1.41%, COc1cccc(-c2noc(COc3ccc(C(C)(C)C)cc3)n2)c1 3.04%, Cc1ccc(NC(=O)c2oc3ccc(S(=O)(=O)N4CCCCCC4)cc3c2C)c(C)c1 0%, CCn1c(=O)c2cc(C(=O)NC3CCC(C)CC3)sc2c2ccccc21 (stereo not given) -9.91%, COc1ccc(NC(=O)c2cc3c(=O)n(Cc4cccs4)ccc3nc2C)cc1 -11.5%, O=C(c1cc(-c2cccc(Cl)c2)on1)N1CCCCC1 -10.7%, Cc1ccc(NC(=O)c2c(NC(=O)c3ccc(F)cc3)sc3c2CCCC3)cc1C 12.7%, COc1ccc(-n2c(C)nnc2SCc2nc(-c3ccc(OC)c(OC)c3)no2)cc1 0.0842%, COc1ccc(OC)c(NC(=O)Cn2c(=O)n(-c3cccc(C)c3)c(=O)c3c2c2cc(C)ccc2n3C)c1 5.26%, CCOC(=O)c1c(C)oc2nc(C)nc(N3CCN(c4cc(Cl)ccc4C)CC3)c12 5.75%, CCOC(=O)c1cc(OC(=O)c2cc(OC)c(OC)c(OC)c2)n(-c2ccccc2)n1 0.775%, CCc1ccccc1N(C)C(=O)Cn1cnc2sc(C)c(S(=O)(=O)N3CCC(C)CC3)c2c1=O 4.12%, CCOc1ccc(-n2c(SCC(=O)Nc3cc(C)on3)nc3c([nH]c4ccccc43)c2=O)cc1 -1.41%, COc1cccc(CNC(=O)CCCn2nc(C)c3sc4ccccc4c3c2=O)c1 2.13%, COc1ccc(C)cc1NC(=O)Cn1c(=O)oc2cc(S(=O)(=O)N3CCCCC3)ccc21 -4.39%, Cc1ccc(Nc2ccc3cc(S(=O)(=O)N4CCCCC4)ccc3n2)cc1F -3.99%, CCn1cc2nc(SCC(=O)Nc3ccc(OC)c(Cl)c3)n(Cc3ccc(OC)cc3)c(=O)c2n1 -6.68%, CCOC(=O)c1ccc(NC(=O)CSc2nc(-c3ccc(OC)cc3)cc(C(F)(F)F)c2C#N)cc1 -8.21%, O=C(Cc1ccccc1)N(Cc1cccnc1)c1nc2c(Cl)cccc2s1 -3.67%, COc1ccc(N(CC(=O)N2CCN(c3ccccc3)CC2)S(=O)(=O)c2c(C)nn(C)c2C)cc1 -6.34%, COc1ccc(-c2cc3nc(C)c(CCC(=O)NCc4ccccc4Cl)c(C)n3n2)c(OC)c1 0.28%, O=C(CCC1CCCC1)N1CCc2c([nH]c3ccccc23)C1c1ccc(F)cc1 (stereo not given) -7.42%, CC(=O)c1ccc(NC(=O)c2cn(-c3ccccc3)nc2-c2ccc(Br)cc2)cc1 -7.6%, CCc1nnc(SC(CC)C(=O)Nc2ccc(OC)c(Cl)c2)c2cc3occc3n12 (stereo not given) -12.9%, N#Cc1nc(COc2ccccc2Cl)oc1NCCc1ccccc1 -9.07%, CCc1cccc(C)c1NC(=O)C1CCN(S(=O)(=O)c2c(C)noc2/C=C/c2c(C)cc(C)cc2C)CC1 0.158%, COc1ccccc1Nc1nc(-c2ccc(F)cc2)c2c(n1)-c1ccccc1OC2 -7.88%, Cc1ccc(CCNC(=O)CN(c2cc(C)cc(C)c2)S(=O)(=O)c2c(C)noc2C)cc1 2.45%
